According to patent publication US20060160798A1, “Viral polymerase inhibitors” (Boehringer Ingelheim (Canada) Ltd., priority 2001, published 2006):

System: Huh7 cells that stably maintain a subgenomic HCV replicon (S22.3 cell-line)
Test: Cell based HCV RNA replication assay (S22.3 replicon cells, real-time RT-PCR)
Conditions: Hepatitis C virus
[1] = Huh-7, 72 h, S22.3 cells, 72 hours incubation, HCV RNA by RT-PCR

**Q.** With CN1CC[C@@](NC(=O)c2ccc3c(C4CCCC4)c(-c4ccccn4)n(C)c3c2)(C(=O)Nc2ccc(-c3cncnc3)cc2)C1 [Entry 7069] as the compound, how does the EC50 (Huh-7, Table 7) read?
**A.** Its EC50 is under 500 nM.

**Q.** How did the EC50 (Huh-7, Table 6) turn out when Cc1ccc(-c2c(C3CCCC3)c3ccc(C(=O)NC4(C(=O)Nc5ccc(/C=C/C(=O)O)cc5)CCCC4)cc3n2C)nc1 [Entry 6060] was run?
**A.** The EC50 was under 500 nM.

**Q.** With Cn1c(-c2cccc(N)n2)c(C2CCCC2)c2ccc(C(=O)NC3(C(=O)Nc4ccc(-c5ccc(C(=O)O)o5)cc4)CCC3)cc21 [Entry 7024] as the compound, how does the EC50 (Huh-7, Table 7) read?
**A.** Its EC50 is under 500 nM.

**Q.** For CC(C)(NC(=O)c1ccc2c(C3CCCCC3)c(-c3ccoc3)[nH]c2c1)C(=O)Nc1ccc(-c2csc(C(N)=O)n2)cc1 [Entry 2024], which EC50 [1] is on record?
**A.** Its EC50 is under 500 nM.

**Q.** With Cn1c(-c2csc(CS(C)(=O)=O)n2)c(C2CCCC2)c2ccc(C(=O)NC(C)(C)C(=O)Nc3ccc(/C=C/C(=O)O)cc3)cc21 [Entry 6024] as the compound, how does the EC50 (Huh-7, Table 6) read?
**A.** Its EC50 is under 500 nM.

**Q.** How did the EC50 [1] turn out when Cn1c(-c2ccccn2)c(C2CCCC2)c2ccc(C(=O)NC3(c4nc5cc(C=CC(N)=O)ccc5[nH]4)CCC3)cc21 [Entry 1027] was run?
**A.** The EC50 was under 500 nM.

**Q.** Which EC50 [1] does the source give for O=C(O)/C=C/c1ccc(NC(=O)C2(NC(=O)c3ccc4c(C5CCCC5)c(-c5ccccn5)sc4c3)CCC2)cc1 [Entry 8001] here?
**A.** Its EC50 is 500 to 5000 nM.

**Q.** How did the EC50 [1] turn out when CCN1CCC(NC(=O)c2ccc3c(C4CCCCC4)c(-c4ccccn4)n(C)c3c2)(C(=O)Nc2ccc3c(c2)cc(C(=O)O)n3C)CC1 [Entry 2092] was run?
**A.** Its EC50 is under 500 nM.

**Q.** Which EC50 (Huh-7, Table 6) does the source give for Cc1ccc(-c2c(C3CCCC3)c3ccc(C(=O)NC4(C(=O)Nc5ccc(/C=C/C(=O)O)cc5)CCN(C)CC4)cc3n2C)cn1 [Entry 6062] here?
**A.** Its EC50 is under 500 nM.

**Q.** With C=Cc1c(C2CCCC2)c2ccc(C(=O)NC(C)(C)C(=O)Nc3ccc(/C=C/C(=O)O)cc3)cc2n1C [Entry 6046] as the compound, how does the EC50 (Huh-7, Table 6) read?
**A.** Its EC50 is under 500 nM.

**Q.** Cn1c(-c2ccsc2)c(C2CCCC2)c2ccc(C(=O)NC3(C(=O)Nc4ccc(/C=C/C(=O)O)cc4)CCC3)cc21 [Entry 6040] was tested. Which EC50 (Huh-7, Table 6) did it give?
**A.** The EC50 was under 500 nM.

**Q.** Which EC50 [1] does the source give for CC(C)(NC(=O)c1ccc2c(C3CCCCC3)c(-c3ccoc3)[nH]c2c1)C(=O)Nc1ccc(/C=C/C(=O)O)cc1 [Entry 2050, (E)-3-[4-(2-{[1-(3-Cyclohexyl-2-furan-3-yl-1H-indol-6-yl)-methanoyl]-amino}-2-methyl-propanoylamino)-phenyl]-acrylic acid] here?
**A.** Its EC50 is under 500 nM.

**Q.** O=C(N[C@@H](Cc1c[nH]c2ccc(O)cc12)c1cscn1)c1ccc2c(C3CCCCC3)c(-c3ccccn3)[nH]c2c1 [Entry 1003] was tested. Which EC50 [1] did it give?
**A.** Its EC50 is 500 to 5000 nM.

**Q.** For Cn1c(-c2ccc(N)nc2)c(C2CCCCC2)c2ccc(C(=O)NC(C)(C)C(=O)Nc3ccc(/C=C/C(=O)O)cc3)cc21 [Entry 2080], which EC50 [1] is on record?
**A.** Its EC50 is under 500 nM.

**Q.** Which EC50 (Huh-7, Table 7) does the source give for Cc1c(C(=O)O)sc2ccc(NC(=O)C3(NC(=O)c4ccc5c(C6CCCC6)c(-c6ccccn6)n(C)c5c4)CCC3)cc12 [Entry 7064] here?
**A.** The EC50 was under 500 nM.

**Q.** With Cc1nc(-c2c(C3CCCC3)c3ccc(C(=O)NC4(C(=O)Nc5ccc(/C=C/C(=O)O)cc5)CCC4)cc3n2C)cs1 [Entry 6075] as the compound, how does the EC50 (Huh-7, Table 6) read?
**A.** The EC50 was under 500 nM.

**Q.** Which EC50 (Huh-7, Table 6) does the source give for CC(C)Nc1nc(-c2c(C3CCCC3)c3ccc(C(=O)NC(C)(C)C(=O)Nc4ccc(/C=C/C(=O)O)cc4)cc3n2C)cs1 [Entry 6017] here?
**A.** Its EC50 is under 500 nM.

**Q.** For Cn1c(-c2cccc(N)c2)c(C2CCCC2)c2ccc(C(=O)NC3(C(=O)Nc4ccc(/C=C/C(=O)O)cc4)CCCC3)cc21 [Entry 6052], which EC50 (Huh-7, Table 6) is on record?
**A.** The EC50 was under 500 nM.

**Q.** How did the EC50 [1] turn out when Cn1c(-c2cccc3cccnc23)c(C2CCCCC2)c2ccc(C(=O)NC(C)(C)C(=O)Nc3ccc(/C=C/C(=O)O)cc3)cc21 [Entry 2082] was run?
**A.** Its EC50 is under 500 nM.

**Q.** For Cn1c(-c2cscn2)c(C2CCCC2)c2ccc(C(=O)NC3(C(=O)Nc4ccc(/C=C/C(=O)O)cc4)CCC3)cc21 [Entry 6070], which EC50 (Huh-7, Table 6) is on record?
**A.** The EC50 was under 500 nM.

**Q.** Which EC50 [1] does the source give for CN(C)CCC(NC(=O)c1ccc2c(C3CCCC3)c(-c3ccccn3)n(C)c2c1)c1nc2ccc(C=CC(=O)O)cc2[nH]1 (stereo not drawn) [Entry 1025] here?
**A.** Its EC50 is 500 to 5000 nM.

**Q.** Which EC50 (Huh-7, Table 7) does the source give for Cc1cccc(-c2c(C3CCCC3)c3ccc(C(=O)NC4(C(=O)Nc5ccc6c(c5)cc(C(=O)O)n6C)CCC4)cc3n2C)n1 [Entry 7023] here?
**A.** Its EC50 is under 500 nM.

**Q.** CN(C)Nc1nc(-c2c(C3CCCC3)c3ccc(C(=O)NC(C)(C)C(=O)Nc4ccc(/C=C/C(=O)O)cc4)cc3n2C)cs1 [Entry 6032] was tested. Which EC50 (Huh-7, Table 6) did it give?
**A.** Its EC50 is under 500 nM.

**Q.** Which EC50 (Huh-7, Table 6) does the source give for CN1CCC(NC(=O)c2ccc3c(C4CCCC4)c(-c4ccc(N)cc4)n(C)c3c2)(C(=O)Nc2ccc(/C=C/C(=O)O)cc2)CC1 [Entry 6054] here?
**A.** The EC50 was under 500 nM.

**Q.** For CN1CCC(NC(=O)c2ccc3c(C4CCCC4)c(-c4cccc(N)c4)n(C)c3c2)(C(=O)Nc2ccc(/C=C/C(=O)O)cc2)CC1 [Entry 6102], which EC50 (Huh-7, Table 6) is on record?
**A.** Its EC50 is under 500 nM.

**Q.** For O=C(O)/C=C/c1ccc(NC(=O)C2(NC(=O)c3ccc4c(C5CCCCC5)c(-c5ccccn5)[nH]c4c3)CCCC2)cc1 [Entry 2033], which EC50 [1] is on record?
**A.** The EC50 was under 500 nM.

**Q.** Cn1c(-c2ccccn2)c(C2CCCCC2)c2ccc(C(=O)NC(C)(C)C(=O)Nc3ccc(-c4ccc(C(=O)O)o4)cc3)cc21 [Entry 2070] was tested. Which EC50 [1] did it give?
**A.** Its EC50 is under 500 nM.

**Q.** CN1CCC(NC(=O)c2ccc3c(C4CCCC4)c(-c4nccs4)n(C)c3c2)(C(=O)Nc2ccc(/C=C/C(=O)O)cc2)CC1 [Entry 6101] was tested. Which EC50 (Huh-7, Table 6) did it give?
**A.** Its EC50 is under 500 nM.

**Q.** And the EC50 (Huh-7, read-out: EC50 (number printed beside the class symbol), Table 6, cpd. 6101 only)?
**A.** Its EC50 is 165 nM.

**Q.** C=Cc1c(C2CCCC2)c2ccc(C(=O)NC3(C(=O)Nc4ccc(/C=C/C(=O)O)cc4)CCC3)cc2n1C [Entry 6084] was tested. Which EC50 (Huh-7, Table 6) did it give?
**A.** Its EC50 is under 500 nM.

Like-named read-outs stand apart in the source and are kept apart here.
